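How tested: cells in 96-well plates exposed to compound for 48 hours at five concentrations. Abbreviation: GI50, concentration required for 50% inhibition of growth.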 Activity calls are given as the source filed them. Rule as the data show it: active = GI50 up to about 1.1 µM and inactive = higher. Square brackets hold non-standard residues; d marks the D form. Peptide text beside a SMILES is read from it. * marks the point of attachment. NMeF = CN[CH](Cc1ccccc1)C(=O)O; NMeV = CN[CH](C(=O)O)C(C)C; Ac5c = NC1(C(=O)O)CCCC1; Boc = CC(C)(C)OC(=O)*; OBn = c1ccc(CO*)cc1; tBu = CC(C)(C)*
The compounds below were run on NCI-H322M (assay: DTP human tumour cell line panel, 48 h).

Row | Compound | GI50
1 | CC(=O)[C@@H]1[C@@H](OC(=O)CCC(C)COC2OC(CO)C(O)C(O)C2O)C[C@H]2[C@@H]3CC=C4C[C@@H](OC5OC(CO)C(OC6OC(C)C(O)C(O)C6O)C(O)C5OC5OC(C)C(O)C(O)C5O)CC[C@]4(C)[C@H]3CC[C@]12C (some centres not stated) | inactive: > 100 µM
2 | CCCCCC(CO)C(O)(C(F)(F)F)C(F)(F)F (configuration not stated) | inactive: > 10 µM
3 | COc1cc(NCc2ccc3nc(-c4ccccc4)c(N)nc3c2)cc(OC)c1OC | inactive: 62.7 µM
4 | C/C(CC(O)(C(F)(F)F)C(F)(F)F)=N\NC(N)=S | inactive: > 10 µM
5 | O=C1c2[nH]c3ccc(Br)cc3c2CCN1Cc1ccc(Cl)cc1 | inactive: 16 µM
6 | CCCn1c(SCC)c2ccccc2c1-c1nc(F)nc(F)n1 | inactive: > 100 µM
7 | C=C(C)[C@@H]1CCC2=C[C@H](OC2=O)[C@@]2(C)C[C@@H]2C2=CC(C)=C(O2)[C@H]1O | inactive: > 75 µM
8 | O=C(c1ccc(Cl)cc1)c1ccc(OCCCCCCCCCCOc2ccc(C(=O)c3ccc(Cl)cc3)cc2)cc1 | inactive: > 100 µM
9 | O=C(O)/C=N/NC(=S)NC1CCCCC1 | inactive: > 100 µM
10 | C/C=C(\N=C=S)C(=O)OC1C(COC(C)=O)OC([C@]2(O)CC(=O)C(N)=C(C(=O)O)C2=O)C(O)C1OC1CC(OC)C(O)([C@@H](C)OC(=O)[C@@H](C)CC)C(C)O1 (some centres not stated) | inactive: 18.8 µM
11 | CCN1CCC(O)(c2ccc([N+](=O)[O-])cc2)C(C(=O)c2ccc([N+](=O)[O-])cc2)C1 (configuration not stated) | inactive: > 100 µM
12 | Cn1c(=S)c2nc(SCc3cccnc3)[nH]c2n(C)c1=O | inactive: > 100 µM
13 | CC(N/N=C(\S)N1CCN(c2ccccn2)CC1)c1nccc2ccccc12 (configuration not stated) | active: 0.527 µM
14 | COC1=CC(=O)N(C)C(O)C1(C#N)OC1OC(CO)C(O)C(O)C1O (configuration not stated) | inactive: > 100 µM
15 | COc1ccc(C2S/C(=C\c3cccc([N+](=O)[O-])c3)C(=O)N2NC(=O)Cc2ccccc2)cc1 (configuration not stated) | inactive: > 100 µM
16 | CC(C)(C)Cc1cc(O)ccc1O | inactive: 46.5 µM
17 | Cc1cc(=O)oc2c(CN(CCCl)CCCl)c(O)ccc12 | inactive: 56.4 µM
18 | NCCC1([N+](=O)[O-])CCNCC1 | inactive: > 100 µM
19 | O=C1CSC(c2ccc([N+](=O)[O-])cc2)N1c1ccc(-n2c(-c3ccccc3)nc3ccccc3c2=O)cc1 (configuration not stated) | inactive: > 100 µM
20 | CCC(NC1=NCCO1)c1cccs1 (configuration not stated) | inactive: 17.6 µM
21 | O=[N+]([O-])c1ccccc1C1N2CCCCC2[C@@H]2c3[nH]c4ccccc4c3CCN12 (some centres not stated) | inactive: 12.2 µM
22 | C=C1C(=O)OC2C1C(OC(=O)/C(=C/C)COC(C)=O)CC1(CO1)C1C(OC(=O)/C(=C/C)CO)C=C(C)C21 (configuration not stated) | inactive: 5.31 µM

Row | Compound | GI50
23 | CC(=O)Oc1cc(OC(C)=O)c2c(c1C)CC[C@@H]1[C@@H]2CC[C@]2(C)[C@@H](OC(C)=O)CC[C@@H]12 | inactive: 16.8 µM
24 | CN1C(=O)C(C(=O)Nc2ccccn2)C2C[C@@]1(C)Oc1ccccc12 (some centres not stated) | inactive: > 100 µM
25 | COc1ccc(N2C(=O)[C@@H]3[C@@H]4CC(C)CC[C@@H]4c4c([nH]c5ccccc45)[C@@H]3C2=O)cc1 (some centres not stated) | inactive: 16.9 µM
26 | CC(C)/C(=N\[N+](C)(C)C)c1ccccc1 | inactive: > 100 µM
27 | CCNc1nc2c(ncn2C2CC(O)C(COP(=O)(O)O)O2)c(=O)[nH]1 (configuration not stated) | inactive: > 100 µM
28 | C[n+]1c(-c2ccc(/C=N/NC(=O)c3ccc(C(=O)N/N=C/c4ccc(-c5cn6ccccc6[n+]5C)cc4)cc3)cc2)cn2ccccc21 | inactive: > 100 µM
29 | CCOC(=O)C(NC(=O)c1ccccc1)(Nc1ccc(S(=O)(=O)Nc2nc(C)cc(C)n2)cc1)C(F)(F)F (configuration not stated) | inactive: > 100 µM
30 | CN(C)c1c(C2CC(O)C(CO)O2)c(=O)c1=O (configuration not stated) | inactive: > 100 µM
31 | Cc1ccc(SSCCCCCS(=O)O)cc1 | inactive: 45.5 µM
32 | O=C1Nc2ccccc2N=CC1NC(=O)C(c1ccccc1)c1ccccc1 (configuration not stated) | inactive: > 100 µM
33 | COC(=O)CCC(=O)N1Cc2cc(C)ccc2N(C(=O)CCC(=O)OC)Cc2cc(C)ccc21 | inactive: > 100 µM
34 | N#CNC1=NC(CCCC(=O)Nc2cccc([N+](=O)[O-])c2)=C(c2nc3ccccc3[nH]2)C(N)N1 (configuration not stated) | inactive: > 100 µM
35 | COc1ccc(C(=O)C#Cc2cnc(OC)nc2OC)cc1 | inactive: 15.2 µM
36 | CCO/C=N/C1=C(C#N)C(c2ccc(OC)c(OC)c2)c2c(-c3ccccc3)nn(-c3ccccc3)c2O1 (configuration not stated) | inactive: 19.9 µM
37 | CSc1c(C(=O)Nc2ccc(Cl)cc2)c(N)nn1-c1ccccc1 | inactive: > 100 µM
38 | NS(=O)(=O)c1ccc(CNc2nc(-c3cccs3)nc3ccc(I)cc23)cc1 | inactive: 13.4 µM
39 | CC1=C(C(=O)OC2CC3CCC2(C)C3(C)C)C2Nc3ccccc3N(C)C2O1 (configuration not stated) | inactive: 2.8 µM
40 | CCOC(=O)C1=NC(c2ccccc2)(c2ccccc2)OC1=C(Cl)Cl | inactive: > 100 µM
41 | O=C(c1ccccc1)c1ccc2[nH]c(-c3c(Cl)c(Cl)c(Cl)c(Cl)c3C(=O)Nc3ccco3)nc2c1 | inactive: 51.9 µM
42 | c1cnc2c(c1)-n1cccc1C1(CCOCC1)NN2 | inactive: > 100 µM
43 | COc1ccc2c(c1)OCCc1cn[nH]c1-2 | inactive: 82.6 µM
44 | Cc1cnc2c(c1C)C(=O)c1ccccc1C2=O | inactive: 61.4 µM

Row | Compound | GI50
45 | Cc1c2c(n3c(nc4ccccc43)c1C#N)N(c1ccc(Cl)cc1)CC2 | inactive: > 100 µM
46 | O=[N+]([O-])c1ccc2c(c1)c(OCc1ccccc1)nn2Cc1ccccc1 | inactive: > 100 µM
47 | COC1(OC)c2ccccc2C2(O)c3ccccc3C(=O)C12 (configuration not stated) | inactive: 95.3 µM
48 | CCOC(=O)Cn1c(=O)[nH]c(=O)c2c1ncn2Cc1ccccc1 | inactive: > 100 µM
49 | CC1=C(C)C1[N+](=O)[O-] | inactive: > 100 µM
50 | O=C1N=C(Nc2ccccc2Cl)N/C1=C\c1ccc(Cl)cc1Cl | inactive: > 100 µM
51 | COC12OCCN(C)C1=CC(=O)C1=NNC(C)C12 (configuration not stated) | inactive: > 100 µM
52 | CC1=C(/C=C/C(C)=C/C=C/C(C)=C/C(=O)OC2CC(n3cc(F)c(=O)[nH]c3=O)OC2CO)C(C)(C)CCC1 (configuration not stated) | inactive: 2.63 µM
53 | COc1ccc2c3c1O[C@H](c1ccc(O)cc1)[C@H]3[N+](C)(C)CC2 | inactive: > 100 µM
54 | COc1ccc(C2S/C(=C\c3cccc(OC)c3)C(=O)N2NC(=O)Cc2ccccc2)cc1 (configuration not stated) | inactive: > 100 µM
55 | COc1ccc(C(CCC(C)=O)C(=O)O)cc1OC (configuration not stated) | inactive: > 100 µM
56 | COc1cc(C2c3cc4c(cc3OC(O)C2C)OCO4)cc(OC)c1O (configuration not stated) | inactive: 29.4 µM
57 | O=C(CBr)NCCc1c[nH]c2ccccc12 | inactive: 2.74 µM
58 | COc1cc(N)c2[nH]c3c(C)ccc(C)c3c2c1 | inactive: > 100 µM
59 | OC1(c2ccccc2)CC2CCC(C1)N2CCCC1(c2ccc(F)cc2)OCCO1 (configuration not stated) | inactive: > 100 µM
60 | O=C(/C=C1\Nc2ncccc2N=C1CC(=O)c1ccccc1)c1ccccc1 | inactive: 14.8 µM
61 | Clc1cc(Cl)cc(/C=N/C23CC4CC(CC(C4)C2)C3)c1 | inactive: > 10 µM
62 | FC(F)(F)c1nc(-c2ccccc2Cl)[nH]c1C(F)(F)F | active: 0.881 µM
63 | COC1=CC(=O)[C@]2(C)[C@H](C1=O)C(C)[C@H]2c1ccc(OC)cc1 (some centres not stated) | inactive: > 100 µM
64 | COc1c(O)c(C=O)c2c(O)c(-c3c(C)cc4c(C(C)C)c(OC)c(O)c(C=O)c4c3O)c(C)cc2c1C(C)C [6,6'-METHOXYGOSSYPOL] | inactive: 5.32 µM
65 | O=C(CC1Sc2ccccc2NC1=O)Nc1ccc(Cl)cc1 (configuration not stated) | inactive: 46.3 µM
66 | CCc1cc(Cc2cc(CC)c(NC(=O)C3=CC(=O)CC(c4ccc(OC)cc4)O3)c(CC)c2Cl)c(Cl)c(CC)c1NC(=O)C1=CC(=O)CC(c2ccc(OC)cc2)O1 (configuration not stated) | inactive: 25.9 µM

Row | Compound | GI50
67 | O=C(c1ccccc1)C1OC12C(=O)Nc1c(Cl)cc(Cl)cc12 (configuration not stated) | inactive: > 100 µM
68 | CC(=O)OC12c3ccccc3-c3ccccc3C1C(C(=O)O)C2C(=O)O (configuration not stated) | inactive: > 10 µM
69 | Cc1ccc(C)c(NC2=NC(=O)C(CC(=O)Nc3ccc(Cl)cc3Cl)S2)c1 (configuration not stated) | inactive: 91.2 µM
70 | C[C@]12CC[C@H]3[C@@H](CC[C@]4(O)C[C@@H](O)CC[C@]34/C=N/O)[C@@]1(O)CC[C@@H]2C1=COC(=O)C1 | active: 0.206 µM
71 | NC(=O)c1ccc([N+](=O)[O-])cc1 | inactive: > 100 µM
72 | Cc1cc(O)nc(NNC(C#N)c2ccccc2O)n1 (configuration not stated) | inactive: 5.92 µM
73 | CC(=O)c1c(N=[N+]=[N-])c2cccc3c2n(c1=O)CCC3 | inactive: 24.5 µM
74 | CC(OC(C)(C)C)C(NC(=O)C(CCCCNC(=O)OC(C)(C)C)NC(=O)C(Cc1c[nH]c2ccccc12)NC(=O)C(N)Cc1ccccc1)C(=O)NC(Cc1ccccc1)C(=O)NC1(C(=O)O)CCCC1 (configuration not stated) (H-FWK(Boc)T(tBu)F[Ac5c]-OH; configuration not given here) | inactive: > 100 µM
75 | O=C(CSc1nc2ccccc2c(=O)n1-c1ccccc1)N/N=C1\C(=O)Nc2ccc(Br)cc21 | inactive: 2.92 µM
76 | Oc1c(Cl)c2nccnc2c2ccccc12 | inactive: > 100 µM
77 | CCN1CCN(c2nc3ccccc3nc2C(=O)c2ccc(OC)c(OC)c2)CC1 | inactive: 19.2 µM
78 | COC(=O)C1=CC(=O)OC1(OO)c1ccccc1 (configuration not stated) | inactive: > 100 µM
79 | O=C(CC1Sc2ccccc2NC1=O)Nc1ccccc1[N+](=O)[O-] (configuration not stated) | inactive: > 100 µM
80 | C1=C(c2ccccc2)O[C@H](COCc2ccccc2)C(OCc2ccccc2)[C@@H]1OCc1ccccc1 (some centres not stated) | inactive: > 10 µM
81 | CN(C)CCNC(=O)c1cccc2c(NCC(=O)O)c3ccccc3nc12 | inactive: 15.8 µM
82 | CCOC(=O)NC(=O)c1cn(CCNCCO)c(=O)[nH]c1=O | inactive: > 100 µM
83 | O=C1CC(c2ccccc2)C2(C(=O)NC(=S)NC2=O)C(c2ccccc2)C1 (configuration not stated) | inactive: > 75 µM
84 | CC1(C2CCC3(C)OC3C2)CO1 (configuration not stated) | inactive: > 100 µM
85 | CC(C)(C)CNCCO | inactive: > 100 µM
86 | COC(=O)c1cnn2c1n[n+]([O-])c1ccccc12 | inactive: > 100 µM
87 | CC(C)C(NC(=O)OC(C)(C)C)C(=O)N(C)C(Cc1ccccc1)C(=O)N(C)C(C(=O)N(C)C(C(=O)OCc1ccccc1)C(C)C)C(C)C (configuration not stated) (Boc-V[NMeF][NMeV][NMeV]-OBn; configuration not given here) | inactive: > 100 µM
